# Measured values: PubChem BioAssay (Tox21)
# Several values for one entry are separate records, joined by “and”; a condition that tells them apart may be missing. Identical values can stand only once. This list was built around the results that the source calls inconclusive (neither active nor inactive); the mix of calls is not that of the screen. For part of these data: A potency beside an inconclusive call is a rough fit, not a confirmed value. More than one record can exist for a structure, and the calls need not agree. Activity calls are given as the source filed them. Unless noted, the call rests on the fitted dose curve; in most records, active means well fitted curve in the direction sought with a large enough effect in the repeat runs; inconclusive means weak or mixed curves; inactive means no such curve, though single readings can be large; an effect the other way counts as inactive or inconclusive.
# Tests used:
# [1] = qHTS assay to identify small molecule antagonists of the sonic hedgehog signaling (Shh) pathway - cell viability counter screen (AID 1259367); details: NIH/3T3 Gli1-Luc viability, CellTiter-Fluor, 24 h; series mostly up to 92.4 µM; further: nearly all actives have a fitted effect of over 55% in size
# Method in brief: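 NIH/3T3-derived Gli1-Luc reporter cells (2,000 per well) rested 4 hr at 37 C, then received DMSO compounds plus conditioned medium. After 23 hr of treatment, CellTiter-Fluor was added for 1 hr at 37C and fluorescence read.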
# [2] = biological target: Estrogen receptor beta (Homo sapiens) (UniProt Q92731); assay: qHTS assay to identify small molecule agonists of the estrogen receptor beta (ER-beta) signaling pathway (AID 1259377; active means well fitted activation curve with a large enough effect in the signal ratio in the repeat runs, not every such curve was filed as active; inconclusive means weak or mixed curves, or effect the other way; the % refers to the signal ratio; on activation: on the % scale 0 is the no-effect control and ±100 the full control effect); details: ER-beta-UAS-bla HEK293T, beta-lactamase FRET ratio, 16 h; activation: at 92.4 µM (top of the series) unless noted
# Chain of UniProt Q92731 (Q92731 whole entry, looked up): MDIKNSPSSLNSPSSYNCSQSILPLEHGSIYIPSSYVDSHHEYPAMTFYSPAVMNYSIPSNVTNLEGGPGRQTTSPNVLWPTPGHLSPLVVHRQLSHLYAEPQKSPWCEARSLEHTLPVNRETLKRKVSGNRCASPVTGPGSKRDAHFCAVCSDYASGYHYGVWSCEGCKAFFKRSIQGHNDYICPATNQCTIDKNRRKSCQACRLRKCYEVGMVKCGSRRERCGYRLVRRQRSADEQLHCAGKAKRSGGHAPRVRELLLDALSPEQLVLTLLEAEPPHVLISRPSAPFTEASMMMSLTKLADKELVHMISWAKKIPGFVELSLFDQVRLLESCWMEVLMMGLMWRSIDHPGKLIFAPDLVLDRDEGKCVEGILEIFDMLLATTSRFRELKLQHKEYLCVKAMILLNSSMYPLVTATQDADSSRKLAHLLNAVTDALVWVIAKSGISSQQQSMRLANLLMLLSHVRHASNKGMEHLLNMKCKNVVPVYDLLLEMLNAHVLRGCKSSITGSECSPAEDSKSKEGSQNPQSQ
# Method in brief: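 A UAS-controlled beta-lactamase reporter in ER-beta-UAS-bla HEK293T cells reports receptor activation. Compounds act for 16 hr at 37C in 2% charcoal-stripped serum, and a FRET substrate is read by fluorescence after 2 hours.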
# [3] = biological target: Estrogen receptor beta (Homo sapiens) (UniProt Q92731); assay: qHTS assay to identify small molecule antagonists of the estrogen receptor beta (ER-beta) signaling pathway (AID 1259378; active means well fitted inhibition curve with a large enough effect in the signal ratio in the repeat runs, not every such curve was filed as active; inconclusive means weak or mixed curves, or effect the other way; inactive means no such curve, though single readings can be large or run the other way; the % refers to the signal ratio; on activity, negative = inhibition: on the % scale 0 is the no-effect control and ±100 the full control effect); details: ER-beta-UAS-bla HEK293T, beta-lactamase FRET ratio, 16 h; activity, negative = inhibition: at 92.4 µM (top of the series) unless noted
# Method in brief: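 ER-beta-UAS-bla HEK293T (GripTite) cells in 2% charcoal-stripped FBS medium were preincubated 6 hr at 37C, dosed with compound, then stimulated with 1 nM E2 (final) for 16 hr; beta-lactamase reporter read by B/G FRET fluorescence after 2 hr substrate loading.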
# [4] = qHTS assay to identify small molecule agonists of the estrogen receptor beta (ER-beta) signaling pathway - cell viability counter screen (AID 1259380); details: ER-beta-bla HEK293T viability, CellTiter-Glo luminescence, 16 h; series mostly up to 92.4 µM; further: nearly all actives have a fitted effect of over 30% in size
# Method in brief: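 CellTiter-Glo read, 30 min RT, same wells as bla assay; cells ER-beta-UAS-bla HEK293T; 16 hr compound, 37C; medium 2% charcoal-stripped FBS.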
# [5] = qHTS assay to identify small molecule agonists of the estrogen receptor alpha (ER-alpha) signaling pathway in the presence of an antagonist - cell viability counter screen (AID 1259386); details: VM7Luc4E2 viability, CellTiter-Fluor fluorescence, 22 h; series mostly up to 92.4 µM;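 further: cells exposed to compounds for 22 h at 37 °C before the viability read; nearly all actives have a fitted effect of over 30% in size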
# Method in brief: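 Viability counter screen using VM7Luc4E2 (full-length ER-alpha, four ERE-luciferase). The cells were treated with compounds alongside ICI-182,780 10.0nM for 22hr, and live-cell protease fluorescence was quantified with CellTiter-Fluor.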
# [6] = biological target: Progesterone receptor (Homo sapiens) (UniProt P06401); assay: qHTS assay to identify small molecule antagonists of the progesterone receptor (PR) signaling pathway (AID 1346795; active means well fitted inhibition curve with a large enough effect in the signal ratio in the repeat runs, not every such curve was filed as active; inconclusive means weak or mixed curves; the % refers to the signal ratio; on activity change, negative = inhibition: on the % scale 0 is the no-effect control and ±100 the full control effect); details: PR-UAS-bla HEK293T, beta-lactamase FRET ratio, 16 h; activity change, negative = inhibition: at 92.4 µM (top of the series) unless noted
# Chain of UniProt P06401 (P06401 whole entry, looked up): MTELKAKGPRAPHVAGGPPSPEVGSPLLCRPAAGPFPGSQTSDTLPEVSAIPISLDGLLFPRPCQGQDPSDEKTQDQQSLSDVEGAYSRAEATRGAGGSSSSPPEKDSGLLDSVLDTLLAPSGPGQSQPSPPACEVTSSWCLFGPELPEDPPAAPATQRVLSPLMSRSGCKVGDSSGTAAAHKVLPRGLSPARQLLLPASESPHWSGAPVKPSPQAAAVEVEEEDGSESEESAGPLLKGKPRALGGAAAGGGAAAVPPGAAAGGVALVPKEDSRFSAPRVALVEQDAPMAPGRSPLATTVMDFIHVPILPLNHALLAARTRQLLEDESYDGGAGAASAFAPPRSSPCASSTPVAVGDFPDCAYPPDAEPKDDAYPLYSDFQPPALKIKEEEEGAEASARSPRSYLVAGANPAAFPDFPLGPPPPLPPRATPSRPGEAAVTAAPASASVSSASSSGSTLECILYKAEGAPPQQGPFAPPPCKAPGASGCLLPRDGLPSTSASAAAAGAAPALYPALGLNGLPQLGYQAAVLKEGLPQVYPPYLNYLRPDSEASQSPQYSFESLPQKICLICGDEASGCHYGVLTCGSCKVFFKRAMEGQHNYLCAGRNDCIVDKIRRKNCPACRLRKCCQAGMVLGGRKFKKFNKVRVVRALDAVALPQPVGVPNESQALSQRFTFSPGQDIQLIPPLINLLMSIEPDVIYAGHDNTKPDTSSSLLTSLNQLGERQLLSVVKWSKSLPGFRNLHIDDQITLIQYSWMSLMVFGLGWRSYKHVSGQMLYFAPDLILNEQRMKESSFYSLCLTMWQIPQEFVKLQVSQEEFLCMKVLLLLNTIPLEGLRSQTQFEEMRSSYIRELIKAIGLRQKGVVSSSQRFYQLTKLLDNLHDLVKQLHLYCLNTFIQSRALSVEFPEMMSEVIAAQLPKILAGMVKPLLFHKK
# Method in brief: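 HEK293T PR-UAS-bla reporter cells in charcoal-stripped serum (2%) received compound after a 6 hr settling period, followed by R5020 agonist at 1 nM final; 16 hr incubation preceded the FRET substrate step and fluorescence measurement.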
# [7] = qHTS assay to identify small molecule agonists of the progesterone receptor (PR) signaling pathway - cell viability counter screen (AID 1346799; calls by dose curve; further: nearly all actives have a fitted effect of over 45% in size); details: PR-UAS-bla HEK293T viability, CellTiter-Glo luminescence, 16 h; series mostly up to 92.4 µM
# Method in brief: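 Counter screen for cytotoxicity: compound-treated PR-UAS-bla HEK293T cells (16 hr, 37C, 5% CO2) were assayed with CellTiter-Glo, luminescence measured after 30 min at room temperature.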
# [8] = qHTS assay to identify small molecule antagonists of the TGF-beta/Smad signaling pathway - cell viability counter screen (AID 1346824); details: SBE-bla HEK293T viability, CellTiter-Glo luminescence; series mostly up to 76.8 µM; further: nearly all actives have a fitted effect of over 50% in size
# Method in brief: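 SBE-bla HEK 293T cells were plated overnight at 37 C, then given compounds in DMSO plus TGF-beta1 (added as 0.25 ng/mL solution) for 5 hr. After the bla read, CellTiter-Glo was added to the same wells and luminescence read after 30 min at room temperature.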
# [9] = qHTS assay to identify small molecule antagonists of the sonic hedgehog signaling (Shh) pathway (AID 1259369; calls by dose curve; further: nearly all actives have a fitted effect of over 45% in size; on activity change, negative = inhibition: on the % scale 0 is the no-effect control and ±100 the full control effect); details: NIH/3T3 Gli1-Luc reporter, Shh antagonist, luminescence 24 h; series mostly up to 92.4 µM
# Method in brief: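 For antagonist detection, the reporter line received test compounds together with conditioned medium, incubated 24hr at 37 C, 5% CO2, then luminescence was recorded following 30min room-temperature luciferase reagent incubation.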
# [10] = qHTS assay to identify small molecule antagonists of the progesterone receptor (PR) signaling pathway - cell viability counter screen (AID 1346798); details: PR-UAS-bla HEK293T viability, CellTiter-Glo luminescence, 16 h; series mostly up to 92.4 µM; further: nearly all actives have a fitted effect of over 50% in size
# Method in brief: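 Same-well multiplex: after 16 hr at 37C with compound and R5020 stimulation, HEK293T cells carrying a UAS-bla reporter received LiveBLAzer substrate (2 hr RT), then CellTiter-Glo (30 min RT) for luminescent viability.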
# [11] = qHTS assay to identify small molecule antagonists of the estrogen receptor beta (ER-beta) signaling pathway - cell viability counter screen (AID 1259382); details: ER-beta-UAS-bla HEK293T viability, CellTiter-Glo luminescence, 16 h; series mostly up to 92.4 µM; further: nearly all actives have a fitted effect of over 55% in size
# Method in brief: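 In this multiplexed counter screen, cells were seeded at 2,000 per well in medium with 2% charcoal-stripped FBS and incubated 6 hr before compound and 1nM final E2 were added. Sixteen hours later, ATP-based luminescence reported viability.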
# [12] = biological target: Thyrotropin receptor (Homo sapiens) (UniProt P16473); assay: qHTS assay to identify small molecule antagonists of the thyroid stimulating hormone receptor (TSHR) signaling pathway (AID 1259385; calls by dose curve; further: nearly all actives have a fitted effect of over 20% in size); details: TSHR-HEK293 cAMP HTRF, TSH-stimulated antagonist mode; activity change, negative = inhibition: at 92.4 µM (top of the series) unless noted
# Chain of UniProt P16473 (P16473 whole entry, looked up): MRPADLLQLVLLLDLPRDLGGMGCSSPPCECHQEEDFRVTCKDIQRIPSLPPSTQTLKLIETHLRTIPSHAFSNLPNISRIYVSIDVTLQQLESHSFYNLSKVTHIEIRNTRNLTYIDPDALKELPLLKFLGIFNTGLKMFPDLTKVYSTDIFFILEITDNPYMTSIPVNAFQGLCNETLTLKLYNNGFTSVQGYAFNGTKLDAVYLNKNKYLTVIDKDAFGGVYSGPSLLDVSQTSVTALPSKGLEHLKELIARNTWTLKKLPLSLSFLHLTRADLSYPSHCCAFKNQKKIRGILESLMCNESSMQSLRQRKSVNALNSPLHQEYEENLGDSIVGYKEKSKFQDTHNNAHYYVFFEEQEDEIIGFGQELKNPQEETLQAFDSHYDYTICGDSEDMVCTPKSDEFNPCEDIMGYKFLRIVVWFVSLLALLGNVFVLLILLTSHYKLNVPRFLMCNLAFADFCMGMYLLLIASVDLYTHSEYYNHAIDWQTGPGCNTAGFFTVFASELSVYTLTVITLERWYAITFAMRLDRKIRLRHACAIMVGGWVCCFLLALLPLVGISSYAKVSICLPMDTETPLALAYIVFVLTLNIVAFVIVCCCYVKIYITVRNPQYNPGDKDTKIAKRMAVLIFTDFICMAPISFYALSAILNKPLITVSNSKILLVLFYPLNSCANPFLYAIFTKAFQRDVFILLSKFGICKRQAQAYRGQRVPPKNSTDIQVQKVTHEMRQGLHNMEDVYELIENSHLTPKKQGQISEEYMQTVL
# Method in brief: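 TSHR-HEK293 cells were plated and held 18 h at 37C/5% CO2, then given compound plus Ro20-1724 and stimulated with TSH at 1.5 ng/mL final. After 30 min at room temperature, cAMP was detected with cAMP-d2/anti-cAMP-cryptate (1 h) by fluorescence.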
# [13] = biological target: Progesterone receptor (Homo sapiens) (UniProt P06401); assay: qHTS assay to identify small molecule agonists of the progesterone receptor (PR) signaling pathway (AID 1346784; calls by dose curve; further: nearly all actives have a fitted effect of over 30% in size); details: PR-UAS-bla HEK293T, beta-lactamase FRET ratio, 16 h; activation: at 92.4 µM (top of the series) unless noted
# Method in brief: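 Agonist mode, quantitative HTS format in a HEK 293T line expressing a UAS-controlled beta-lactamase reporter; 16 hr compound exposure at 37C in 2% charcoal-stripped FBS, then LiveBLAzer B/G FRET fluorescence.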
# [14] = qHTS assay to identify small molecule agonists of the androgen receptor (AR) signaling pathway in the presence of an antagonist - cell viability counter screen (AID 1259379); details: MDA-kb2 viability, CellTiter-Fluor, 16 h; series mostly up to 92.4 µM; further: nearly all actives have a fitted effect of over 25% in size
# Method in brief: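 Seed MDA-kb2 at 3,000 cells/well; incubate 5 hr, 37C, 0% CO2. Add nilutamide to 3.0uM final, then pin compounds at 15 concentrations. Incubate 16 hr. Add CellTiter-Fluor at 15 hr, read fluorescence after 1 hr.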
# Potency means the concentration at half of the fitted maximal effect; tags describe the fitted curve by direction and shape or compound fluorescence and quenching.
smiles,measurement,setting,value
Oc1cc(Cl)c(Cl)c(Cl)c1Cl,Potency,[1],"inconclusive: 59.7 µM [cytotoxic, partial curve, poor fit]"
same,Potency,[2],inactive
same,Potency,[3],active: 13.4 µM
same,Potency,[4],"inconclusive: 15 µM [cytotoxic, full curve]"
same,Potency,[5],"inconclusive: 42.3 µM [cytotoxic, partial curve]"
same,Potency,[6],active: 21.2 µM
same,Potency,[7],inactive
same,Potency,[8],"inconclusive: 17 µM [cytotoxic, full curve, poor fit]"
O=S(=O)(c1ccc(Cl)cc1)c1cc(Cl)c(Cl)cc1Cl,Potency,[1],inactive
same,Potency,[9],"inconclusive: 54.4 µM [inhibitor, partial curve, poor fit] and inconclusive: 30.6 µM [inhibitor, partial curve, poor fit]"
same,"activity, negative = inhibition",[3],inconclusive: -36.9%
same,Potency,[10],"inconclusive: 19.3 µM [rising, full curve]"
Clc1cccc(SC2CCNCC2)n1,Potency,[1],"inconclusive: 23.7 µM [cytotoxic, partial curve, poor fit]"
same,Potency,[9],active: 26.6 µM
same,Potency,[11],inactive
same,Potency,[6],inactive
C[As+](C)(C)CC(=O)[O-],Potency,[1],"inconclusive: 77 µM [cytotoxic, partial curve, poor fit]"
same,Potency,[2],inactive
Cc1ccc(N=CN(C)C=Nc2ccc(C)cc2C)c(C)c1,Potency,[1],"inconclusive: 77.3 µM [cytotoxic, single point]"
same,Potency,[9],"active: 54.7 µM and inconclusive: 76.9 µM [inhibitor, single point] and inactive"
same,Potency,[11],"inconclusive: 27.4 µM [cytotoxic, full curve] and inconclusive: 43.2 µM [cytotoxic, partial curve]"
same,"activity change, negative = inhibition",[12],inconclusive: -13.2%
same,Potency,[13],"inconclusive: 38.5 µM [falling, partial curve, poor fit]"
same,Potency,[6],inactive
same,Potency,[10],"inconclusive: 21.7 µM [cytotoxic, full curve]"
same,Potency,[7],"inconclusive: 48.5 µM [cytotoxic, partial curve]"
CC(Cl)(Cl)C(=O)O,Potency,[1],"inconclusive: 2.44 µM [cytotoxic, full curve, poor fit]"
same,Potency,[9],"inconclusive: 2.44 µM [inhibitor, single point] and inconclusive: 13.7 µM [inhibitor, single point]"
same,Potency,[7],inactive
OCC1CO1 (configuration not stated),Potency,[1],inactive
same,Potency,[9],inactive
same,Potency,[4],"inactive and inconclusive: 969 nM [cytotoxic, single point]"
same,Potency,[5],inactive
same,Potency,[10],inactive
same,Potency,[7],inactive
O=[N+]([O-])O.O=[N+]([O-])O.[Cd],Potency,[1],active: 15.4 µM
same,Potency,[9],active: 1.72 µM
same,Potency,[4],"inconclusive: 0.0611 µM [cytotoxic, full curve, poor fit]"
same,Potency,[5],"inconclusive: 61.1 µM [cytotoxic, partial curve]"
same,activation,[13],inconclusive: -20.8%
same,Potency,[6],"inconclusive: 2.43 µM [rising, partial curve]"
same,Potency,[10],active: 3.06 µM
same,Potency,[7],active: 4.86 µM
O=[N+]([O-])c1cc(C(F)(F)F)cc([N+](=O)[O-])c1Cl,Potency,[1],active: 24.4 µM
same,Potency,[9],"inconclusive: 19.4 µM [inhibitor, full curve, poor fit]"
same,Potency,[2],"inconclusive: 48.8 µM [rising, partial curve]"
same,Potency,[3],inconclusive: 34.5 µM [partial curve]
same,Potency,[11],"inconclusive: 27.4 µM [cytotoxic, partial curve]"
same,Potency,[5],active: 30.8 µM
same,Potency,[6],"inconclusive: 21.8 µM [rising, full curve]"
same,Potency,[10],"inconclusive: 19.4 µM [cytotoxic, full curve]"
same,Potency,[7],active: 13.7 µM
Cc1cc(C)c(C(=O)P(=O)(c2ccccc2)c2ccccc2)c(C)c1,Potency,[1],active: 54.5 µM
same,Potency,[9],active: 4.33 µM
same,activation,[2],inconclusive: -7.22%
same,Potency,[3],"inconclusive: 68.6 µM [cytotoxic, single point]"
same,Potency,[5],inconclusive: 68.6 µM [cytotoxic]
same,Potency,[13],inconclusive: 68.6 µM [cytotoxic]
same,Potency,[6],inconclusive: 19.3 µM
same,Potency,[10],"inconclusive: 68.6 µM [cytotoxic, single point]"
same,Potency,[7],"inconclusive: 68.6 µM [cytotoxic, single point]"
CC1(c2ccc(Oc3ccccc3)cc2)OC(=O)N(Nc2ccccc2)C1=O (configuration not stated),Potency,[1],"inconclusive: 77.4 µM [cytotoxic, single point]"
same,Potency,[9],active: 6.15 µM
same,Potency,[3],active: 10.9 µM
same,Potency,[14],active: 24.5 µM
same,Potency,[4],"inconclusive: 6.9 µM [cytotoxic, full curve]"
same,Potency,[12],"inconclusive: 54.8 µM [falling, partial curve]"
same,Potency,[5],active: 30.8 µM
same,Potency,[6],"inconclusive: 27.5 µM [rising, full curve]"
same,Potency,[10],inconclusive: 54.8 µM [cytotoxic]
same,Potency,[7],"inconclusive: 1.73 µM [rising, full curve]"
same,Potency,[8],"inconclusive: 7.81 µM [cytotoxic, partial curve, poor fit]"
